Experimental data as given in the antibiotic and cytotoxicity screens of Wong et al. (2023).
The other results are listed elsewhere or left out.

tested on: HepG2; test: cytotoxicity call (relative viability < 0.9); settings: 10 µM

Compound	cytotoxicity call
CCN1CCCC[C@@H]1C(=O)O	inactive
CCC(=O)N1C[C@]2(CN(C2)S(=O)(=O)C)c2c(n(c3cc(ccc23)OC)C)[C@@H]1CO	inactive
C[C@H]1CCCCO[C@@H](CN(C)Cc2ccccc2)[C@@H](C)CN([C@@H](C)CO)C(=O)c2cc(NC(=O)Nc3ccc4c(c3)OCO4)ccc2O1	inactive
C[C@@H]1CCCCO[C@@H](CN(C)C(=O)Nc2ccc(C(F)(F)F)cc2)[C@H](C)CN([C@H](C)CO)C(=O)c2cc(NS(=O)(=O)c3ccccc3)ccc2O1	active
COc1ccc(S(=O)(=O)Nc2ccc3c(c2)C(=O)N([C@H](C)CO)C[C@H](C)[C@@H](CN(C)S(=O)(=O)c2ccc(F)cc2)O3)cc1	inactive
C[C@@H]1C[C@H]1C(=O)O	inactive
